Measurements as given in the supplement of paper PMC11417369.
± gives the standard deviation of the averaged measurements. The list shows a part of the results.

These sequences were tested on PfAP2-EXP AP2 domain (GST-tagged) (assay: gcPBM binding intensity (ln(normalized median fluorescence intensity)); higher = stronger DNA binding).
Procedure, shortened: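 Alexa488 anti-GST antibody, scanned at 488 nm, detected GST-tagged P. falciparum DNA-binding domains that had been expressed in E. coli and incubated for 1 h on an Agilent 4 × 180k array. The array carried primer-extended double-stranded 36-bp intergenic genomic probes and negative controls. Binding intensity is the highest Masliner-normalised natural-log median intensity across replicate spots of either orientation of each probe.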

“GAAAATAGCTAAAATACACACAATTAAAAGTTATTA [CACACA_site7614]” and “TTACAAAAATGTGGTTGTACACAAACAAAAAAAATA [XGTACX_site8506]” are within error of each other in “gcPBM binding intensity (ln)” value: 8.43 ± 0.59 for the first, 8.84 ± 0.24 for the second.

Compared with “AAAATTTAATATAATGCACACATAAAAAAAAAAAAT [CACACA_site8425]”, “TATAATATAATATATGCACACAAATATGTATATATG [CACACA_site8664]” is lower in “gcPBM binding intensity (ln)” value: 8.905 ± 0.007 for the first, 8.065 ± 0.049 for the second.

Going from AACTATATATAACTAGTGCAAAGACAATATTTTAAA to “TTCTTTAAAATAAATTGTACTAACATATATATATAT [XGTACX_site6045]”, the “gcPBM binding intensity (ln)” value rises from 8.57 ± 0.33 to 10.1 ± 0.3.

First: TTGTTTATTTTTTATTACTATAAAGATGTTATATAT [CACACA_negctrl_site1506]
Second: ATAATATCTTTATGTGTGCACATATATATATATATA
The “gcPBM binding intensity (ln)” value of the first is lower: 8.59 ± 0.43 for the first, 10.1 ± 0.38 for the second.

“TATATAAATATATATGTACACACATATACATGTTGA [CACACA_site9022]” and “TTTTTTTTTGTTTACACACCCAAATCACATACATAT [CACACA_site4052]” are within error of each other in “gcPBM binding intensity (ln)” value: 8.31 ± 0.28 for the first, 8.75 ± 0.52 for the second.

“AAAATAAAAATACACATTTTTTTTTTTTTTTTTTTT [TGCATGCA_negctrl_site515]” and “TTTTTTTTTTTTTTTGCACACTTGATTTGAGCTTAT [CACACA_site4042]” are within error of each other in “gcPBM binding intensity (ln)” value: 8.88 ± 0.18 for the first, 8.34 ± 0.4 for the second.

“AAAAAAAACAGACACACACACATAAATATATATAAA [CACACA_site148]” and “TAAATAATTTATAAGTGTACTATTATTGCACGAATA [XGTACX_site7715]” are within error of each other in “gcPBM binding intensity (ln)” value: 8.78 ± 0.64 for the first, 9.13 ± 0.69 for the second.

First: CATTAGGTCTTTTGTACATGCAAGTGTGTGCGTAAA [TGCATGCA_site255]
Second: ATGATTTTTTCTGTATGTACATAAAAATAAAATTCT [XGTACX_site5698]
The “gcPBM binding intensity (ln)” value of the first is higher: 9.11 ± 0.23 for the first, 8.48 ± 0.33 for the second.

“TATGTGTAATATTTTTGTACAGAAAAAAAAAAAAAA [XGTACX_site7075]” and “AAAAAAAAAAAAAACACACACATGCACATCATATTA [CACACA_site4467]” are within error of each other in “gcPBM binding intensity (ln)” value: 8.59 ± 0.54 for the first, 8.73 ± 0.36 for the second.

“AAAAAAAAAATTAAAACATGCATAAATAAATATATT [TGCATGCA_site866]” and “ATATTTTTATTAGTAGTGCAATTTAGTGTATATATA [GTGCAC_site9542]” are within error of each other in “gcPBM binding intensity (ln)” value: 8.73 ± 0.37 for the first, 8.81 ± 0.071 for the second.

“TCATTTCACAGACACACACACACAATATATTTCCTT [CACACA_site9295]” and “AAAAAAAAAAAATATACACACTAATATATTTTTTTA [CACACA_site4604]” are within error of each other in “gcPBM binding intensity (ln)” value: 8.86 ± 0.48 for the first, 8.31 ± 0.59 for the second.

“TATTTAAAAAGAAAAAAAAAAAAAAAAATACATATA [CACACA_negctrl_site164]” and “TATATACGCAAACACACACACACATACACCCACATA [CACACA_site1724]” are within error of each other in “gcPBM binding intensity (ln)” value: 8.25 ± 0.45 for the first, 8.59 ± 0.44 for the second.

“TATTAAATTTATCGGAGTACATTTAAATGTATATAC [XGTACX_site7975]” and “TATTACTATGTTATAACTTTTTTAAACGTGATCATA [TGCATGCA_negctrl_site128]” are within error of each other in “gcPBM binding intensity (ln)” value: 8.66 ± 0.37 for the first, 8.34 ± 0.51 for the second.

“TGACTGTAGATATTTTGTACATAACCTAATATATAT [XGTACX_site970]” and “TAGTAGTTATCACTAACATGCAATAATATTATTTAA [TGCATGCA_site161]” are within error of each other in “gcPBM binding intensity (ln)” value: 8.44 ± 0.36 for the first, 8.51 ± 0.38 for the second.

“CGTATAAATATACGTGCATGTAACTTTTTCTATATT [TGCATGCA_site981]” and “CTATTTATTTTTGATGCATGCCAAATATAGAAAAAA [TGCATGCA_site368]” are within error of each other in “gcPBM binding intensity (ln)” value: 8.98 ± 0.23 for the first, 9.28 ± 0.26 for the second.

“TTATGTACAATTTCTTCTTTCTTTTTTCCTAAAGAC [CACACA_negctrl_site1193]” and “TTTTTTTTTTTTTTTTGTACACATAATATGAATAAT [XGTACX_site2661]” are within error of each other in “gcPBM binding intensity (ln)” value: 8.56 ± 0.45 for the first, 8.34 ± 0.37 for the second.

“ATAACATATATATATACACACACATATATATATGAA [CACACA_site7983]” and TACAGTTCAATGAAGGTGCAATTAATATATAAAATA are within error of each other in “gcPBM binding intensity (ln)” value: 8.45 ± 0.34 for the first, 8.84 ± 0.071 for the second.

“ATAATATAATACGAAGGTACACATTTTCTTAATATA [XGTACX_site7947]” and “ATATATTTTTTGAATACACACATATTATAGGTAATA [CACACA_site6709]” are within error of each other in “gcPBM binding intensity (ln)” value: 8.35 ± 0.32 for the first, 8.33 ± 0.45 for the second.

“TTTTTTTTTCTTTTCAAACACACAATTGGTATATAT [CACACA_site3321]” and “ACTTATAAAAACATATACCCCATCGCATTTTTTCCA [XGTACX_negctrl_site177]” are within error of each other in “gcPBM binding intensity (ln)” value: 8.62 ± 0.4 for the first, 8.73 ± 0.44 for the second.

“TGTAATATAAAATTTTGTACTCAAAAATTTATATAT [XGTACX_site3252]” and “AATTTTTTATATGTCACACATTTATTATTATTATTA [CACACA_site4198]” are within error of each other in “gcPBM binding intensity (ln)” value: 8.18 ± 0.23 for the first, 8.55 ± 0.38 for the second.

“TATATTTATAGGTACACACACACATATAAATAAATA [CACACA_site6345]” and “TTTATTAGTAATTATACACACATATAAAATGAATAA [CACACA_site6754]” are within error of each other in “gcPBM binding intensity (ln)” value: 8.65 ± 0.37 for the first, 8.28 ± 0.45 for the second.

“ATAAAATTATATTTTGCATGCAGGCCTTTTTCTTAA [TGCATGCA_site1030]” and “AAAAAAAAAAAAAACACACACATATATATATATATA [CACACA_site1891]” are within error of each other in “gcPBM binding intensity (ln)” value: 9.94 ± 0.14 for the first, 10.2 ± 0.3 for the second.

“TTCCAAAAAGTTATTACACACATATGTGCACATATA [CACACA_site6465]” was tested, and the “gcPBM binding intensity (ln)” value was 8.84 ± 0.092.
